Over roughly 33,000 sequences, “E-score (-0.5 to 0.5)” has its median near -0.036; the highest 2% begin near 0.37. This is one part of the list.
What follows are sequences tested against T1, Yer064c (UniProt P40041) (assay: PBM E-score (8-mer binding enrichment) (E-score (-0.5 to 0.5)); higher = stronger / more preferred TF binding; most listed sequences are background and not binding sites). Settings: protein concentration: 200 nM; construct: GST-full length.
T1 sequence: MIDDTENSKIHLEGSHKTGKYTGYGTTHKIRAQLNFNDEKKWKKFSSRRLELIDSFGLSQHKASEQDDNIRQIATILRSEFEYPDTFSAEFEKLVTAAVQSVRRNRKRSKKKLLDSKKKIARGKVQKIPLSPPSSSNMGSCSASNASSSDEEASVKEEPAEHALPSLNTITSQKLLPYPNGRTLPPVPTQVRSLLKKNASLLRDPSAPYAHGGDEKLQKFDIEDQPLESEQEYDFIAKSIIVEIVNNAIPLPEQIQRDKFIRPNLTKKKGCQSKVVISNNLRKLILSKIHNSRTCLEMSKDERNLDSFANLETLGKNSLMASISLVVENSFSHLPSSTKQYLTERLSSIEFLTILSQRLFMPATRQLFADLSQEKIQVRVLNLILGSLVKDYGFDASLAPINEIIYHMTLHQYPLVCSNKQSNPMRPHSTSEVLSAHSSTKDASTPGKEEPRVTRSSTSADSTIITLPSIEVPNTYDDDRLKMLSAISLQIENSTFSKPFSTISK
Outline: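 Universal all-10-mer Agilent arrays, fresh or stripped once, were converted to double-stranded form by primer extension. GST-tagged yeast transcription factors from PURExpress in vitro transcription/translation, full-length or DNA-binding domain only, were applied at about 100-200 nM and detected with fluorescent anti-GST. After masliner normalisation, the Universal PBM Analysis Suite scored each ungapped eight-base word together with its reverse complement by E-score.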

Row | Sequence | PBM E-score
1 | ACCGTAGA | -0.065
2 | CGTACACG | -0.0262
3 | AAGGGCGG | -0.204
4 | GACATTTA | -0.169
5 | CATCATCA | 0.161
6 | AGCACTCA | 0.119
7 | AAAGAAGA | 0.045
8 | ACGGTGGC | -0.155
9 | CGTTGGAC | -0.0379
10 | AACGCAGG | -0.101
11 | CCGGTATC | -0.291
12 | ACCCGGTG | -0.142
13 | CAAATGGC | -0.167
14 | ACGATGAA | 0.0715
15 | AATTCCAT | -0.0881
16 | CGGTCTGC | -0.145
17 | CGACGAAA | 0.0295
18 | GATAACCC | -0.162
19 | ATTGTCCC | -0.15
20 | GACTTGGA | 0.0722
21 | AGGGTTAA | 0.104
22 | CTGCTATC | -0.196
23 | GGTCTTGA | 0.0234
24 | CTGAGGAA | -0.17
25 | AATTCGGG | -0.288

Row | Sequence | PBM E-score
26 | AAAGCCAG | -0.0319
27 | ACATTTGC | -0.169
28 | ACAGAATG | 0.0946
29 | AAAACGCA | -0.0665
30 | GGCCGCTA | -0.253
31 | ACAACCCG | 0.0664
32 | AATGGACC | 0.0237
33 | ATAGTATC | 0.00332
34 | ACCTGATG | 0.0351
35 | AGCAAGTA | 0.0755
36 | GAGAATAC | 0.0219
37 | CATGACAA | -0.00212
38 | ACGCCATA | -0.239
39 | CCTCTAGC | -0.268
40 | CAGCCAGG | -0.0796
41 | CCCCGTCC | -0.321
42 | AAGCCGCG | -0.227
43 | CCGCATGA | 0.247
44 | AACACGTG | 0.191
45 | ACTGCCAG | 0.0823
46 | GGTCTTAA | -0.0271
47 | ATACCCAT | 0.318
48 | CTTTGTAC | 0.00464
49 | TCTTGAAA | 0.273
50 | CTAGGCCA | -0.143

Row | Sequence | PBM E-score
51 | ACACAAGC | 0.0383
52 | TGACTTAA | 0.435
53 | AAATTCAA | -0.0759
54 | ACACTACT | 0.0763
55 | CGAATCCC | -0.125
56 | CATCCTAA | 0.0625
57 | AATTTGGG | 0.145
58 | AGTGCCTA | 0.00656
59 | ACTGCGAG | 0.22
60 | AGAGCGCA | -0.0588
61 | AACTCGAC | 0.0909
62 | ATCCCAAT | -0.143
63 | AGTCAATC | 0.426
64 | AAGAGGGT | -0.129
65 | ACAACTGT | -0.0125
66 | CTAGCATC | -0.0958
67 | CGGGACGC | -0.282
68 | AAGAGCTC | -0.0923
69 | ACCCGATC | -0.189
70 | CACCTAGG | 0.0188
71 | AAGTGCAG | 0.0456
72 | CTGAGCCC | 0.0308
73 | ATCTCCTA | -0.17
74 | CTCTCTAA | 0.0149
75 | AGGTCTCC | -0.157

Row | Sequence | PBM E-score
76 | CAATAGAA | -0.108
77 | ACTACACC | 0.146
78 | ACTACGGG | -0.132
79 | ACGTGCAC | -0.0468
80 | GCCTGAGC | -0.233
81 | ATGGGGGG | -0.179
82 | GTGGCAAA | -0.157
83 | GAGCATTA | 0.0612
84 | AGGAACGC | -0.37
85 | CTTTCGGA | -0.113
86 | AACTTTAG | -0.0244
87 | CGACATGC | -0.0286
88 | AGTTACGA | 0.127
89 | AGGCGGAC | -0.0508
90 | AATACACG | -0.173
91 | CGAGGCGA | 0.0428
92 | AGCCCTCC | -0.29
93 | GCTGAAGC | -0.135
94 | AAGCTCAA | 0.00338
95 | CTCTCTTC | -0.0842
96 | GATCTTAC | 0.0257
97 | AGCGAGCG | -0.215
98 | GATATTAA | -0.0398
99 | GACACGTC | -0.0681
100 | CTTCAAGA | 0.208

Row | Sequence | PBM E-score
101 | AGGCTTCG | -0.149
102 | GATCTTAA | 0.225
103 | ACGCTCCG | -0.232
104 | ACGAGATC | -0.00279
105 | GCACGCGC | -0.262
106 | GTTAAGGA | 0.128
107 | AGTAATTG | 0.112
108 | ACTGGGCT | -0.181
109 | CTTGCCTA | -0.126
110 | AGACTGAC | 0.299
111 | ATGTATAG | 0.0799
112 | CGCGTCCC | -0.256
113 | ATTGCCTA | 0.153
114 | AGTTCGTC | -0.0236
115 | CACCGGCA | -0.166
116 | CTGCGTCA | -0.145
117 | CTTTGTGA | 0.136
118 | CCTTCTCA | -0.111
119 | AAAGAGTA | 0.0885
120 | ACCCGGCC | -0.168
121 | CGGAAGTC | 0.268
122 | AGCTTTGA | 0.158
123 | CCTGAAAG | -0.033
124 | GATTGGTA | 0.0776
125 | AGGCAACG | -0.227

Row | Sequence | PBM E-score
126 | GACCCCTC | -0.00087
127 | GACCACAC | 0.00422
128 | GCGCGCGC | 0.212
129 | GGCCCTAC | -0.147
130 | CAGCCGGC | -0.218
131 | CAGGGTAC | -0.143
132 | AACCCGAT | -0.0429
133 | AGAAGGCT | -0.246
134 | GGGAGTGA | 0.0741
135 | CTAACCAA | 0.145
136 | TACGGTAA | -0.0542
137 | CAGCGCTA | 0.0006
138 | CCTGACCC | -0.151
139 | CCTCGAAG | -0.185
140 | AGGTTATA | -0.29
141 | ATAAAGTC | 0.284
142 | GGCTTCAA | -0.107
143 | CCGTAGTA | -0.15
144 | GCTGAACA | 0.0192
145 | ATACTGAT | 0.117
146 | ACAAAATA | -0.0844
147 | CCGAACAG | -0.0474
148 | CGTGTAGC | 0.0129
149 | GATGAATC | 0.387
150 | ACTCTAAC | 0.147

Row | Sequence | PBM E-score
151 | CTATACTC | 0.0859
152 | AGCCGCCC | -0.162
153 | CTCGCGGC | 0.00801
154 | AGTCGCAC | 0.353
155 | AATTCTTG | -0.0156
156 | CGATTCCC | 0.08
157 | AGTGAGTG | 0.0771
158 | ATCCCTTC | -0.095
159 | ACTCTCCA | 0.114
160 | AACGACGC | -0.169
161 | CAACCCGC | 0.0525
162 | CGCCCAAA | 0.0397
163 | CGCTGAAC | -0.0322
164 | GCCAGTGA | 0.128
165 | ACATCACC | -0.226
166 | CCATAAAA | -0.175
167 | ACAATATG | 0.00196
168 | CACTTACG | 0.121
169 | AACGCCTG | -0.261
170 | AATATATT | 0.193
171 | CTTGAACC | 0.164
172 | GACAGCCA | -0.158

Source: the supplement of paper PMC3334620
